We go through 86 sequences from the supplement of paper PMC3334620.

Whole data set: some 33,000 sequences, median “E-score (-0.5 to 0.5)” near -0.011, cut for the highest 2% near 0.28. This is one part of the list.

The test addresses T1, Gcr1 (UniProt P07261).
T1 sequence: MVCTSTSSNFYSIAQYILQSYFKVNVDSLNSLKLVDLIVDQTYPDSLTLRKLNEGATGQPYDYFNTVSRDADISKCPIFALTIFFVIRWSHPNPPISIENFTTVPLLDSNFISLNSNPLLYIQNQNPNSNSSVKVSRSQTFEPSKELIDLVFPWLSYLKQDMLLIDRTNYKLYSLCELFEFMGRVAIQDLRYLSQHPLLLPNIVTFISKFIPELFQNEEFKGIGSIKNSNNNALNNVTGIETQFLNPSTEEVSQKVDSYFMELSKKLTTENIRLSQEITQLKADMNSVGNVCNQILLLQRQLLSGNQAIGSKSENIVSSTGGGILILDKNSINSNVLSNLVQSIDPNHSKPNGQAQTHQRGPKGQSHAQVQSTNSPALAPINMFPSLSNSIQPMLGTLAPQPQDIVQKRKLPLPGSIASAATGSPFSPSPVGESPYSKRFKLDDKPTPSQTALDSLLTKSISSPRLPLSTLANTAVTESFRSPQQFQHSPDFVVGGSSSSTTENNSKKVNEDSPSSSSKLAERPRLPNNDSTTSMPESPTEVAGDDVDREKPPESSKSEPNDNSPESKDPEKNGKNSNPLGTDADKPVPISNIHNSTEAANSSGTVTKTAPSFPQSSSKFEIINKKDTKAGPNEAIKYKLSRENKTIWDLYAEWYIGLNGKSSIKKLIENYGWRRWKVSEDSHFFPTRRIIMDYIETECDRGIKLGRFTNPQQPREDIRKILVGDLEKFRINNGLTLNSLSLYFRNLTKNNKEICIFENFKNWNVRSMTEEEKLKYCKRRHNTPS
Description: PBM E-score (8-mer binding enrichment) (E-score (-0.5 to 0.5)); higher = stronger / more preferred TF binding; most listed sequences are background and not binding sites. Particulars: protein concentration: 100 nM; construct: GST-full length. In a few lines: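 Yeast transcription factors, full-length or as DNA-binding domains, were expressed with a GST tag using PURExpress in vitro transcription/translation. At about 100-200 nM they were applied to universal all-10-mer Agilent arrays, double-stranded by primer extension on fresh or once-stripped slides. Fluorescent anti-GST detected bound protein, and masliner normalised the scans. E-scores for ungapped eight-base words, pooled with reverse complements, came from the Universal PBM Analysis Suite.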
For CAGCTCTA, the “PBM E-score” value is -0.097.
Turning to CTATGATA, the “PBM E-score” value is -0.125.
In the case of GCCCCGAA, the “PBM E-score” value came out at 0.126.
Take CAGTCTAA: the “PBM E-score” value came out at 0.106.
As for TCGGTAGA, the “PBM E-score” value came to 0.0482.
As to GGCTAGCC, the “PBM E-score” value is -0.447.
For ACGGGCTG, the “PBM E-score” value was -0.0959.
In the case of AGTTAACG, the “PBM E-score” value is -0.00946.
Turning to TGACCCCA, the “PBM E-score” value was -0.0436.
For the sequence GGGGGGCA, the “PBM E-score” value is -0.0602.
In the case of GGCCGTTA it was 0.0646; in that of CTTCCATA, 0.236.
Regarding CAGGAAGG, the “PBM E-score” value is 0.184.
For CAGGTAGA the value was -0.0481; for AGATGATG, 0.0498.
Consider ACCCCAGT, for which the “PBM E-score” value is 0.0219.
For the sequence GTCGTTTA, the “PBM E-score” value was 0.0289.
Consider CCTTCCAC, for which the “PBM E-score” value came to 0.208.
AATTACCT: the “PBM E-score” value is -0.264.
For CTTAGCTC the value was -0.0718; for GGGCATTA, -0.0795.
Regarding GCTCACTA, the “PBM E-score” value is -0.211.
Consider CTTAGACC, for which the “PBM E-score” value is -0.0765.
For ACCGGCAC, the “PBM E-score” value turned out to be 0.143.
Regarding ACAGTGAG, the “PBM E-score” value is -0.152.
In the case of AGAGGGAG, the “PBM E-score” value came out at 0.0729.
For AAAATCTT the value was -0.0416.
CCAGCGCA: the “PBM E-score” value is -0.0884.
For GTTACAAA the value was 0.0591.
Consider AAGGTACC, for which the “PBM E-score” value is 0.0237.
As for TACCCTCA, the “PBM E-score” value is -0.0455.
GCCCAGTA: the “PBM E-score” value was determined as 0.11.
Regarding AGGGGCTC, the “PBM E-score” value was -0.0666.
Regarding ATGGTAGC, the “PBM E-score” value was -0.135.
For GACGAACC the value was -0.0115; for ACTTGTAC, 0.0885; for CCTCTTCC, -0.142.
Regarding GAGGCACA, the “PBM E-score” value turned out to be 0.0667.
Regarding AGGAGGCG, the “PBM E-score” value was -0.0375.
As to CGCGGTTC, the “PBM E-score” value was -0.00972.
As to TAAGCGTA, the “PBM E-score” value was -0.214.
As to CAGATACA, the “PBM E-score” value came to 0.0958.
In the case of GATAACGC, the “PBM E-score” value came to 0.0645.
Turning to AGGCCAGC, the “PBM E-score” value was -0.196.
In the case of CTCAAGTA it was -0.035; in that of ACCCCCCC, -0.213.
In the case of ACCCCGGC, the “PBM E-score” value is -0.0658.
Regarding ACCAAAAT, the “PBM E-score” value amounted to 0.177.
CATGCATC: the “PBM E-score” value is -0.0542.
Turning to CGATAACG, the “PBM E-score” value is -0.121.
Turning to ACGTTTAT, the “PBM E-score” value is -0.0156.
In the case of AGCAGACG it was 0.0519; in that of GTCTTTGA, 0.0325; in that of CCACGATC, 0.114.
For CGCTGCCA, the “PBM E-score” value was 0.185.
Consider CCTGCGGA, for which the “PBM E-score” value amounted to 0.00368.
For the sequence CAACATCA, the “PBM E-score” value was -0.00816.
For the sequence TAGGTACA, the “PBM E-score” value was -0.158.
For ACAGGGTA the value was -0.185.
Regarding GGGGGGGA, the “PBM E-score” value is -0.345.
AAGTAACG: the “PBM E-score” value is -0.139.
In the case of AAGTTAGT, the “PBM E-score” value is -0.2.
GGGGGTAA: the “PBM E-score” value was -0.108.
On to AGGCGTTC, for which the “PBM E-score” value was found to be 0.0118.
On to TATAGACA, for which the “PBM E-score” value stood at 0.00015.
In the case of GTATGAAA, the “PBM E-score” value worked out at 0.0292.
With ATTCGAGC, the “PBM E-score” value was -0.138.
For GGATTGAA the value was -0.19.
In the case of GATGAGGA, the “PBM E-score” value was -0.00884.
For the sequence AACAGGGT, the “PBM E-score” value was -0.0823.
With CCCCTGCC, the “PBM E-score” value is -0.207.
In the case of ATGGATAG it was -0.00601; in that of AGTTGCGC, 0.0859; in that of ATAGACAA, -0.0747.
As for AACTACTG, the “PBM E-score” value is -0.0124.
On to CACGAGTA, for which the “PBM E-score” value was found to be 0.0314.
With GGGGACAA, the “PBM E-score” value was 0.0734.
Take TCACATGA: the “PBM E-score” value is -0.104.
Turning to GAATACGA, the “PBM E-score” value worked out at 0.256.
As for CCAGACGG, the “PBM E-score” value is -0.112.
With ACAACTCA, the “PBM E-score” value was -0.0394.
With ATTGGAGA, the “PBM E-score” value turned out to be 0.143.
In the case of CGGTGCGA it was -0.0181; in that of AATTGGAA, 0.238.
With CGATGCCC, the “PBM E-score” value is 0.0343.
Take AATAGGAA: the “PBM E-score” value came to 0.352.
